SMILES strings stand for the structures. Several values for one entry are separate records, joined by “and”; a condition that tells them apart may be missing. Equal entries are not always repeated.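 1) Cells in 96-well plates. 2) Compound, 48 h, 5 concentrations. 3) Linear interpolation between surrounding doses. 4) Unreached endpoint = highest concentration. GI50 is the concentration that inhibits growth by half. TGI: concentration producing complete growth inhibition.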

The record followed here is PubChem BioAssay (NCI).

The test system of this test is NCI-H322M lung. Kind of test: NCI-60 cell line screen, 48 h.
With `O=C(Nc1ccc([N+](=O)[O-])cc1Cl)c1cc(Cl)ccc1O`, the GI50 is 0.135 µM and 0.279 µM; the TGI is 0.444 µM.

`NC1=NN(c2ccccc2)C(=O)C1/C(=N\NC(=O)c1cc2ccccc2cc1O)C(=O)Nc1ccc(Cl)c(Cl)c1` (centres undefined) gave a TGI above 100 µM.

In turn, `CC1O[C@@H]2CCCCC(=O)[C@]2(C)[C@H]1C` (some centres undefined) yielded a TGI above 100 µM.

As for `Cc1cccc(N=Nc2ccc(O)c(CN(C)C)c2)c1`, the TGI was above 100 µM.

Regarding `CCCCCCCC(=O)[O-].N.N.N.N.N.[Co+3].[O-][Cl+3]([O-])([O-])[O-]`, the GI50 was above 100 µM and the TGI was above 100 µM.

As to `CN(C)CCNC(=O)c1cccc2c(NC(CCCN=C(N)N)C(=O)O)c3ccccc3nc12` (centres undefined), the TGI came to 65.3 µM.

Turning to `O=c1[nH]c(C2CCCCC2)nc2ccc(Cl)cc12`, the TGI was above 100 µM.

Consider `c1ccc(C(OCCN2CC3CCC(C2)N3)c2ccccc2)cc1`, for which the TGI was above 100 µM.

For the molecule `CNC(=O)/C(C#N)=C(\N)N1CCCC1`, the TGI is above 100 µM.

In turn, `CCN(CC(O)COc1ccc2c(c1)[n+]([O-])nc(N)[n+]2[O-])C(C)=O` (centres undefined) had a TGI above 100 µM.

For `CC(C)Cc1cc(-c2cccn2C)c(C#N)c(=O)[nH]1`, the GI50 is above 100 µM and the TGI is above 100 µM.

For `CN1C(=O)c2c(c3c4ccccc4n(C)c3c3c2c2ccccc2n3C)C1=O`, the TGI is above 100 µM.

Molecule `CCN1CCC(O)(/C=C/c2ccc(Cl)c(Cl)c2)C(C(=O)/C=C/c2ccc(Cl)c(Cl)c2)C1` (centres undefined) returned a TGI of 2.63 µM.

Regarding `COc1ccc(COc2ccc(Cc3cnc(N)nc3N)cc2OC)cc1`, the GI50 is above 25 µM and the TGI was above 25 µM.

In turn, `CCC(/C(=N/NC(=O)C[N+](C)(C)C)c1ccccc1)C1OC(=O)c2ccccc21` (centres undefined) returned a TGI above 100 µM.
